# From PubChem BioAssay AID1030 (National Center for Advancing Translational Sciences (NCATS), 2008)
# In all, about 220,000 compounds went through this assay and about 16,000 (7.3%) were called active. This list was built around the results that the source calls inconclusive (neither active nor inactive); the mix of calls is not that of the screen. Calls follow the shape of the dose curve; as a rule, active = well fitted inhibition curve with a large enough effect (not every such curve was filed as active); inconclusive = small, poorly fitted or top-dose-only effect, or another doubt; inactive = no such curve, though single readings can be large or run the other way. No potency is given beside an inconclusive call; the fits are too rough.
# Molecular target: Aldehyde dehydrogenase 1A1 (Homo sapiens) (UniProt P00352)
# Test: qHTS Assay for Inhibitors of Aldehyde Dehydrogenase 1 (ALDH1A1)
# Conditions: Purified ALDH1A1, NADH fluorescence, propionaldehyde substrate; series mostly up to 75.3 µM
# Potency is read from the fitted curve at half-maximal effect; tags tell the direction and shape of the fitted curve.
# Chain of UniProt P00352 (P00352 whole entry, looked up): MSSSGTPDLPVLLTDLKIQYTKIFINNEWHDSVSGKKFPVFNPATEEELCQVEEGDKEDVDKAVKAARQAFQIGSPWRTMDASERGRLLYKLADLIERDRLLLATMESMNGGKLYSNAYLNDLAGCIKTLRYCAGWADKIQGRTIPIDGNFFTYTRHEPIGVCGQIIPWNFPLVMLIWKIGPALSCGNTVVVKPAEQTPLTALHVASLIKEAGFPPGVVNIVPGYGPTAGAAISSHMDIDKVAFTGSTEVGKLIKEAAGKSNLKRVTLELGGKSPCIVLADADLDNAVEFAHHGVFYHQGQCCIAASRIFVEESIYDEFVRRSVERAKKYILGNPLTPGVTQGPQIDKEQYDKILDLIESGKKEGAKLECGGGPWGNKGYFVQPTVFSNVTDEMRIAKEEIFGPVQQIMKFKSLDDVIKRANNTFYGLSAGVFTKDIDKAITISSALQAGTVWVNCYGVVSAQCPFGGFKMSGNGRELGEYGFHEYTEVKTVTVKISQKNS
row,SMILES,Potency
1,O=C(Nc1ccc(C(=O)O)cc1)/C(=C\C=C\c1ccccc1)NC(=O)c1cccc(Br)c1,"inconclusive [inhibitor, single point]"
